Source: the supplement of paper PMC3334620
The full ranking holds about 33,000 sequences; the median of “E-score (-0.5 to 0.5)” is about -0.035, and the highest 2% start at about 0.34. The list shows a part of the results.

biological target: T1, Mot3 (UniProt P54785); experiment: PBM E-score (8-mer binding enrichment) (E-score (-0.5 to 0.5)); higher = stronger / more preferred TF binding; most listed sequences are background and not binding sites; conditions: protein concentration: 200 nM; construct: GST-full length
T1 sequence: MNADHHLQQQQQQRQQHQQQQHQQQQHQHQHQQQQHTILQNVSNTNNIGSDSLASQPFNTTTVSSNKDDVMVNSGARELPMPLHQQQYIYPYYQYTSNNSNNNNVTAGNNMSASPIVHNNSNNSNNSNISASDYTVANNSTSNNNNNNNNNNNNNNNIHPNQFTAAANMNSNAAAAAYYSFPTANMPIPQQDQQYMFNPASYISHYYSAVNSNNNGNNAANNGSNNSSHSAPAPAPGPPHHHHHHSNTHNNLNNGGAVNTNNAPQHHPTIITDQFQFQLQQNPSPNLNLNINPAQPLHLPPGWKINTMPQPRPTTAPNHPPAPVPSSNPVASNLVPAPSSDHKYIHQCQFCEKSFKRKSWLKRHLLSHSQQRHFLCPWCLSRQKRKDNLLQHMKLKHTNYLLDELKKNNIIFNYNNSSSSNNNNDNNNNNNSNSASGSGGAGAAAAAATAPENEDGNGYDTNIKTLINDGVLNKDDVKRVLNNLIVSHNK
How it was run: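 Yeast transcription factors, full-length or as DNA-binding domains, were expressed with a GST tag using PURExpress in vitro transcription/translation. At about 100-200 nM they were applied to universal all-10-mer Agilent arrays, double-stranded by primer extension on fresh or once-stripped slides. Fluorescent anti-GST detected bound protein, and masliner normalised the scans. E-scores for ungapped eight-base words, pooled with reverse complements, came from the Universal PBM Analysis Suite.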

Sequence | PBM E-score
GGATGCAA | -0.148
GTTGTGGA | -0.0446
AAGTGCCA | 0.0649
CGAGCATA | -0.294
GTAACTGA | 0.034
CAAGGCTC | 0.0281
CCCGTCCC | -0.272
AAACATAT | 0.231
CGATCGTC | -0.199
CAGCGTAA | 0.0403
CCACAGTC | -0.269
TCAACCGA | 0.131
CAGTATGG | -0.159
AAACTGGA | -0.0913
CATTACAA | 0.301
AATCACTG | -0.121
GTATGAAC | 0.0103
AATCTTTC | -0.0839
GCACCCTA | 0.129
AATCCGTA | -0.0768
GACATACC | 0.167
ATACACTG | 0.0308
ACACTCGG | 0.0176
GCTGGGAC | -0.284
CTATACAG | 0.168

Sequence | PBM E-score
CGCACGAG | -0.185
AGTTCTTA | -0.0625
ATATACCC | -0.0104
ATGAGAAT | 0.03
CGCGAGCG | -0.311
AAGACACT | -0.0137
AGGTCTGG | -0.252
CGGTGCGC | -0.195
CACTGCTC | -0.267
CACGTCTA | 0.159
GGTTATAC | 0.031
ACGGACCT | -0.0982
GGCGGGCA | -0.0728
AGGAAGCG | -0.0464
AACAGTCC | -0.258
AGATCGCA | -0.116
TCAGATAA | -0.0998
AGGCATCA | 0.409
CGAAGAGA | -0.117
ACGCCCAG | 0.0736
CGCCGACC | -0.266
CCGCACCC | -0.177
GGGACTGA | -0.187
CTGGATGA | -0.143
CCGCTAGA | -0.196

Sequence | PBM E-score
AGAAAGCT | -0.0593
AGTAGGAG | -0.251
GGGGTAAA | -0.0182
AGAAGGTG | -0.0242
ATTATAGC | -0.221
ATGCCACC | -0.206
CGGCGAGA | -0.214
CTACATAC | 0.301
ATGCGTAG | 0.152
ACGATACT | -0.0988
AATGCCAG | -0.201
CCTGCATC | 0.0447
CAACAACA | 0.315
GTAGTAGA | 0.166
CGCCAGCA | -0.0712
TATATGCA | 0.101
AGTACGAA | -0.0897
TAGTCGAA | -0.136
GCTGGCGA | -0.235
CGGAGCAG | -0.253
ATGCCTCA | 0.111
CAGTGGAC | -0.177
GGTGTAAA | 0.297
CTACACTA | 0.135
CACGTTAC | 0.269

Sequence | PBM E-score
CTTACTTA | 0.197
CTGTAGGC | 0.285
TCTCATCA | -0.124
ATTAATCG | 0.00546
ATCACTTA | 0.0631
GTGGGGCA | -0.356
GGCTCTGA | 0.00444
AATTGTGG | 0.0614
ACAGGTCG | -0.129
AACCAACC | -0.0647
ATAGTTAC | 0.203
CCGGCCAA | -0.239
GTCGTTCA | -0.0486
GATTTAAC | 0.149
CTACGGCA | -0.118
ATTATCCA | -0.0189
CTGTGTTA | 0.334
GGTTTCTA | 0.0968
AACCATCC | -0.182
AACCTACC | -0.0754
AATACGAG | 0.109
AATGAACG | 0.115
CAGGCTCC | 0.28
AACAAAAT | 0.191
GCGGGGCC | -0.167

Sequence | PBM E-score
ACAGTCCG | -0.162
ACCCTATG | 0.0532
CGTATTAA | 0.165
ACTCTCGA | 0.109
AGCTAGGG | -0.117
CAGCCCAC | -0.114
AAAGCTGT | -0.108
GCCAATAA | -0.0458
CTTCTTAC | 0.155
ACTAAGTC | -0.138
TATAAAGA | 0.0854
CCCGGCCC | -0.304
ACTATCGC | -0.275
AACCACGG | -0.234
ATATAATC | 0.149
GCATGGCC | -0.0896
TCGTACGA | 0.0481
GCCTTCCC | -0.0975
CGGCATTA | -0.0232
ATTGGGCC | -0.086
CCCAGCGG | -0.169
CCGCTCTA | 0.0253
AGGAGGAC | -0.309
CGAACACC | -0.104
CATAGTTC | 0.124

Sequence | PBM E-score
CAATGGGG | -0.0677
CTGGGGGA | -0.407
TCCGTAGA | -0.125
TAAACCTA | -0.01
CAGGCTTA | -0.034
AGTGGAAC | -0.142
CTGGGTAC | -0.154
AGCGAACC | -0.108
AGGTCACT | -0.184
ACGGTAGG | -0.157
ACGGTTGG | -0.106
CGACCCCA | -0.138
CTCAACCA | -0.122
AGGCTAGA | -0.146
CTGTCTGC | -0.167
CCTTCTAG | 0.0376
ACTAGGCT | 0.0216
CACGCACC | -0.0142
ACCAGTAC | -0.0511
GATATAGA | -0.0457
CATACGGC | -0.11
AGGGCGCC | -0.164
AATCATCC | -0.019
AAACCGTA | -0.0686
ATTCGCTA | -0.0341

Sequence | PBM E-score
ATGATCTA | 0.142
CGATAGCA | -0.159
CTCATCAA | 0.0556
GAGGCAAA | 0.328
AAGACGAG | 0.0142
CGATGATC | -0.114
ATGTCACG | 0.175
AGGGAGGC | -0.0529
ACTCGCGG | -0.045
GTGGCCAC | -0.155
AGCGTTGA | -0.0446
GACGGTGC | 0.0469
AATCCCTG | -0.179
GCAGGGTA | -0.0563
TGGACACA | 0.0857
ATGAGGTG | -0.0399
AAGCCAGT | 0.0268
AGTCGATG | -0.138
ACTGGAAC | -0.119
TTTATAAA | 0.261
ACGATAAC | 0.00207
ACTACACT | 0.181
